Source: PubChem BioAssay AID2546 (National Center for Advancing Translational Sciences (NCATS), 2010)
Screen size: about 310,000 compounds; about 11,000 (3.5%) were called active. Inconclusive means that the source gave no clear call. Such entries were picked first, then a sample of the others. The call rests on the fitted dose curve; in most records, active means well fitted inhibition curve with a large enough effect; inconclusive means small, poorly fitted or top-dose-only effect, or effect the other way; inactive means flat fitted curve, though single readings scatter. No potency is given beside an inconclusive call; the fits are too rough.
On the % scale 0 is the no-effect control and ±100 the full control effect; potency means the concentration at half of the fitted maximal effect; tags describe the fitted curve by direction and shape.

Assay: VP16 counterscreen qHTS for inhibitors of ROR gamma transcriptional activity;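 further: Gal4-VP16 expression switched on by copper sulfate through the metallothionein promoter; nearly all actives have a fitted effect of over 50% in size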
Settings: Drosophila S2 Gal4-VP16 UAS-luciferase, luminescence, 20 h; activity, negative = inhibition: at 53.6 µM (top of the series)
With `O=C(c1cnn2c(C(F)(F)F)cc(-c3cccs3)nc12)N1CCCC1` the Potency was “inactive”.
In the case of `Cc1ccc(CNC(=O)C(=O)NCC2OCCN2C(=O)c2cccs2)cc1` (stereo not drawn), the Potency is reported as “inactive”.
For `O=C1CCCC=C1[C@@H](O)CCOC(c1ccccc1)(c1ccccc1)c1ccccc1`, the Potency was “inactive”.
With `COC(=O)/C=C1\C(=O)N(c2nc3ccc(OC)cc3s2)C(=S)N1c1ccc(F)cc1` the activity, negative = inhibition was inactive: 1.63% [at 0.365 µM].
In the case of `Cc1ccc(N(C(=O)CNC(=O)c2ccco2)C(C(=O)NC2CCCC2)c2ccncc2)cc1F` (stereo not drawn), the Potency is reported as “inactive”.
In the case of `Cc1ccc(NC(=O)C(c2ccccc2)C2CCCC2)cc1` (stereo not drawn), the Potency is reported as inconclusive [activator, single point].
In the case of `Cn1cccc1/C=N/NC(=O)c1ccc(OC(F)(F)C(F)F)cc1`, the Potency is reported as active: 5.62 µM.
With `COc1ccc(OCc2cc(C(=O)O)c(C)o2)cc1` the Potency was inconclusive [inhibitor, single point].
With `CC(NC(=S)Nc1ccc(OC(F)F)cc1OC(F)F)C(C)(C)C` (stereo not drawn) the Potency was active: 15.8 µM.
With `C[C@@H](NC(=O)[C@@H]1Cc2ccccc2CN1C(=O)OC(C)(C)C)C(=O)NC1CCCC1` the Potency was “inactive”.
For `Cc1cccc(NC(=O)C2C3CCCCC32)c1` (stereo not drawn), the Potency was “inactive”.
For `Cn1cc(C(=O)c2ccccc2C(=O)O)cc1C(=O)C(Cl)(Cl)Cl`, the Potency was “inactive”.
With `COc1ccc(/C=N/NC(=O)c2c(Br)cnn2C)c2ccccc12` the Potency was active: 2.82 µM.
In the case of `CCNc1nc(=S)nc(NCc2ccccc2)[nH]1`, the Potency is reported as active: 7.08 µM.
In the case of `NC(=O)CC(NC(=S)NCc1ccccc1)C(=O)O` (stereo not drawn), the Potency is reported as inconclusive [inhibitor, single point].
For `O=C1/C(=C/c2ccc(N3CCOCC3)o2)SC(=Nc2ccccc2)N1CCc1c[nH]c2ccccc12`, the Potency was active: 5.01 µM.
For `C=CCc1ccc(OCCCOc2ccc(C)cc2OC)c(OC)c1`, the Potency was inconclusive [inhibitor, single point].
With `CC1CCC(O)C/C1=C\C=C1/CCCC2(C)C1CCC2C(C)/C=C/C(C)C(C)C` (stereo not drawn) the Potency was inconclusive [inhibitor, single point].
In the case of `Cc1ccc(-c2cc(C(F)F)nc(S(C)(=O)=O)n2)cc1`, the Potency is reported as inconclusive [inhibitor, single point].
For `O=C1CC(c2cccc(Cl)c2)c2cc3c(cc2N1)CCC3` (stereo not drawn), the Potency was inconclusive [inhibitor, single point].
With `O=C(Nc1nncs1)c1cc2c(s1)CCC2` the Potency was “inactive”.
With `O=C(c1ccc2nc[nH]c2c1)N1CCN(c2ncc(C(F)(F)F)cc2Cl)CC1` the Potency was inconclusive [inhibitor, single point].
For `Oc1ccc(/C=N/Nc2nc(-c3ccccc3F)nc3ccccc23)c(O)c1`, the Potency was inconclusive [inhibitor, single point].
In the case of `CC(C)c1ccccc1NC(=S)NC(C)c1ccccc1` (stereo not drawn), the Potency is reported as inconclusive [inhibitor, full curve, poor fit].
For `CCOC(=O)c1cnc2c(Cl)cc(Cl)cc2c1NCCCN1CCOCC1`, the Potency was “inactive”.
In the case of `CCCCn1c(-c2ccccc2)cnc1SCC(=O)NCCc1ccc(OC)c(OC)c1`, the Potency is reported as inconclusive [activator, single point].
With `CCc1ccc(CN(C(=O)c2cccs2)C2CCS(=O)(=O)C2)cc1` (stereo not drawn) the Potency was “inactive”.
For `C=CCOc1ccc(C2NC(=O)c3ccccc3O2)cc1` (stereo not drawn), the Potency was inconclusive [activator, single point].
With `Cc1ccc(C)c(NC(=S)NCc2cccs2)c1` the Potency was active: 11.2 µM.
In the case of `CCCOc1ccc(-c2c(C(=O)N/N=C/c3cccs3)nnn2-c2nonc2N)cc1`, the Potency is reported as active: 3.16 µM.
With `Cc1ccc(CNC(=O)C2CCN(S(=O)(=O)c3c(C)noc3/C=C/c3ccco3)CC2)cc1` the Potency was “inactive”.
In the case of `COc1ccc(Cc2nc(=S)[nH][nH]2)cc1Br`, the Potency is reported as inconclusive [inhibitor, single point].
With `CN(C)/C=C/C(=O)c1ccc(Cl)cc1` the Potency was “inactive”.
In the case of `C[n+]1ccn(CC(=O)c2ccc(Cl)cc2)c1`, the Potency is reported as inconclusive [activator, single point].
For `CCCCCCCC(=O)N/N=C(\C)c1ccc(O)cc1O`, the Potency was active: 11.2 µM.
In the case of `O=c1c2ccccc2[nH]c(=S)n1CCCN1CCN(c2ccccc2F)CC1`, the Potency is reported as active: 8.91 µM.
In the case of `O=C(O)c1ccc(NC(=O)c2cc3ccccc3o2)cc1`, the Potency is reported as inconclusive [inhibitor, single point].
With `CCCCCCc1cc2cc(S(=O)(=O)c3ccc(C)cc3)c(=O)oc2cc1O` the Potency was inconclusive [inhibitor, single point].
